# According to publication PMC4336329 (PLoS ONE, 2015):
# In all, about 310,000 compounds went through this assay and about 14,000 (4.5%) showed an effect of 50% or more. Effects have a minus sign here. The list shows a part of the results.
# Target: human ether-à-go-go-related gene (hERG) potassium channel (human, UniProt Q12809)
# Assay: primary screen, population patch clamp on CHO cells stably expressing hERG
# 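Further: peak tail current of the secondary pulse compared with the same well before compound.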
# human ether-à-go-go-related gene (hERG) potassium channel, sequence (Q12809 whole entry, looked up): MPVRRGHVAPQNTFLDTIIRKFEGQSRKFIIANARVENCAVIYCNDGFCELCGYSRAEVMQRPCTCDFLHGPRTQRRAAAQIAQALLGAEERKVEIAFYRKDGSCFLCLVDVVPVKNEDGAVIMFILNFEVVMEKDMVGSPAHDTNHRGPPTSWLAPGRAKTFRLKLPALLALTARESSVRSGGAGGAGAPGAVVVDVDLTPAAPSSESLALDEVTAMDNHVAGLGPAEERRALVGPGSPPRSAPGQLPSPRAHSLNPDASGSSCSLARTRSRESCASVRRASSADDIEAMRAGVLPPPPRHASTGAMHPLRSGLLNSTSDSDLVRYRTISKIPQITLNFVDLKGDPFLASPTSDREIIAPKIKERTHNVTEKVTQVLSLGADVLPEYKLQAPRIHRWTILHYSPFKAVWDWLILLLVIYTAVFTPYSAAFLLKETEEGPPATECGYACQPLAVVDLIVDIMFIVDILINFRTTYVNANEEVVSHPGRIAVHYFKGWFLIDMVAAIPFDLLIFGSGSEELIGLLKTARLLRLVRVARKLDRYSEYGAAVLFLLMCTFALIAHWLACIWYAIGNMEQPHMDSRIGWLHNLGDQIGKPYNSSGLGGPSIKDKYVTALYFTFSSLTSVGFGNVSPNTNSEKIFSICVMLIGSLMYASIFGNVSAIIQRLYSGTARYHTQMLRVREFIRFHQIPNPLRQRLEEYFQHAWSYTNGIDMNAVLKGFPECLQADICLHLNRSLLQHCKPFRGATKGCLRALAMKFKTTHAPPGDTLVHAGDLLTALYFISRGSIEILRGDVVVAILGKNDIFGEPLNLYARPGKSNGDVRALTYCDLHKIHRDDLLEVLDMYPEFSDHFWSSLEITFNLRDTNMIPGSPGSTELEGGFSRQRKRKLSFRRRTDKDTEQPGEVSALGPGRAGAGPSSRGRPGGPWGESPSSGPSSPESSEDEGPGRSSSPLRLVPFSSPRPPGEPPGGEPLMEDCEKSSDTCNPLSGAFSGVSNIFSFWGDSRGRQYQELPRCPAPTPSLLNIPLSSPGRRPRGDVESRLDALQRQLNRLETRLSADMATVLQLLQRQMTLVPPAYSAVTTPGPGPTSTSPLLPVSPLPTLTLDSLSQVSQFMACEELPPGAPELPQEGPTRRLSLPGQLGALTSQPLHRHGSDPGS
row,Compound,"hERG current change (%, negative = inhibition) at 10uM [%]"
1,O=C(O)c1[nH]c2ccccc2c1C(c1cc(Br)ccc1O)c1c(C(=O)O)[nH]c2ccccc12,19.8
2,CSc1ncnc2sc(C)c(C)c12,5.21
3,O=C(CSc1nncn1-c1ccccc1)Nc1c(F)cccc1F,3.19
4,O=C(CC(=O)N/N=C\c1cccc(Cl)c1Cl)NCc1ccccc1,12.8
5,O=C(O)CC(C(=O)Nc1cccc(C(F)(F)F)c1)C1CCCO1 (centres unmarked),-10.2
6,S=C(NCCCCc1ccccc1)NCc1ccccc1,11.7
7,Cc1ccc(NC(=O)CCNS(=O)(=O)c2cc(Br)cnc2N)c(Cl)c1,-16.1
8,O=c1[nH]c(N/N=C\c2ccc(F)cc2)nc2ccccc12,-6.47
9,Cc1ccc(C)c(S(=O)(=O)Nc2ccc(C(=O)NCC(c3ccco3)N(C)C)cc2)c1 (centres unmarked),-22.3
10,Cc1ccc(-n2c(=O)c3sccc3n(CC(=O)NCc3ccco3)c2=O)cc1F,10.9
11,Cc1cc(Cl)ccc1OCCCC(=O)N1CCCc2ccccc21,2.77
12,Cc1ccc(CSc2nnc(CNc3ccc(F)cc3)o2)cc1,7.56
13,Cc1cc(NC(=O)CS(=O)(=O)c2cn(C)c3ccccc23)no1,21.6
14,Cc1ccc(CC23CN4CCN(CC(C4)C2O)C3)c(C)c1 (centres unmarked),8.56
15,O=C(Nc1cccc(S(=O)(=O)N2CCOCC2)c1)C1=NN(c2ccccc2)C(=O)CC1,-42.9
16,Cc1ccc(C2c3c(oc4cc(C)c(C)cc4c3=O)C(=O)N2CCCN2CCOCC2)cc1 (centres unmarked),-37.5
17,CCOC(=O)C1CCCN(S(=O)(=O)c2cccc3nsnc23)C1 (centres unmarked),14
18,Cc1onc(-c2ccccc2Cl)c1-c1nc(-c2ccccn2)no1,-17.2
19,CCOc1ccc(C2C(C#N)=C(N)Oc3c2c(=O)oc2ccccc32)cc1 (centres unmarked),-12

row,Compound,"hERG current change (%, negative = inhibition) at 10uM [%]"
1,Cc1ccsc1S(=O)(=O)N1CCCC(CCC(=O)NCc2ccccc2F)C1 (centres unmarked),5.38
2,CN(C)S(=O)(=O)Oc1ccsc1C(=O)Nc1ccc(Br)cc1,-12.2
3,Cc1ccc(-n2nc(CN3CCOCC3)c(-c3ccccc3)c2N)cc1Cl,-4.56
4,CCN(Cc1ccc(NC(C)=O)cc1)CC1CCCN(CCc2cccc(F)c2)C1 (centres unmarked),-24.4
5,Cc1ccccc1NC(=O)COC(=O)c1cccc(S(=O)(=O)N2CCCCC2)c1,-6.55
6,Clc1ccc(CO/N=C/c2c(-c3ccccc3)nc3n2CCS3)c(Cl)c1,12.7
7,Cc1nc(C)c(-c2csc(Nc3cccnc3)n2)s1,-1.69
8,CC(=O)c1cn(-c2ccc([N+](=O)[O-])cc2)c(=O)n(C)c1=O,-18.3
9,Cc1ccsc1/C=N/NC(=O)CNC(=O)c1ccc(S(=O)(=O)N2CCOCC2)cc1,2.86
10,O=S(=O)(c1ccc(Br)cc1)N1CCCC1c1nc2ccccc2s1 (centres unmarked),-17
11,CCOC(=O)[C@H]1[C@H]2COc3ccc(OC)cc3[C@@H]2N2C(=O)CN(Cc3ccco3)C(=O)[C@@]12C,0.741
12,Cn1ccnc1C(=O)c1cc(SCC(=O)N2CCOCC2)nc2ccccc12,9.21
13,O=C1C=C(c2ccc(Cl)c(C(F)(F)F)c2)C[C@@H](c2ccc(Cl)cc2)C1,15.4
14,CSc1ncc(C(=O)Nc2ccccc2F)c(-c2ccccc2)n1,13.1
15,Cc1ccccc1CS(=O)(=O)Cc1ccc(C(=O)NCC2CCCO2)o1 (centres unmarked),14.3
16,Cc1ccc(C(=O)NC2CCCCCCC2)c(Cl)c1,-0.762
17,Cc1cc(CNC(=O)C2(C(F)(F)F)C/C(=C\Cc3ccccc3)CCCO2)nn1C (centres unmarked),9.35
18,N#C/C(=C(/O)COC(=O)CCC1CCCCC1)c1nc2ccccc2[nH]1,6.03
19,CCCc1cc(=O)oc2c(C)c(OCc3nn[nH]n3)ccc12,2.98

row,Compound,"hERG current change (%, negative = inhibition) at 10uM [%]"
1,NS(=O)(=O)c1ccc(NC(=O)c2cc(-c3ccccc3O)n[nH]2)cc1,13.3
2,Cc1cccn2c1nc(=S)n2C(=O)c1ccco1,13.4
3,O=C1CN(C(=O)COC(=O)C2=COCCO2)c2ccccc2N1,-10.7
4,COc1ccc(NC(=O)CN(c2ccc(C)cc2)S(=O)(=O)c2c(C)nn(C)c2C)cc1,6.26
5,CC(=O)NCC(=O)OCC(=O)c1ccc(C)c(C)c1,-0.439
6,CCCCNC(=O)CNC(=S)N(CCCN1CCOCC1)Cc1cccs1,-27.4
7,CCOc1ccccc1C(=O)NCCCCCC(=O)O,19.4
8,Cc1ccc(NC(=O)CSc2ccc3nnc(-c4cccnc4)n3n2)cc1,-53.1
9,O=C(Nc1cccc(Cl)c1N1CCOCC1)c1cccnc1Cl,-3.48
10,O=C(NCCc1nc2ccccc2[nH]1)/C(=C/c1ccc(F)cc1)NC(=O)c1ccco1,-62.8
11,NC(=O)c1c(NC(NC(=O)c2ccco2)(C(F)(F)F)C(F)(F)F)sc2c1CCCC2,5.02
12,CC(=O)c1cccc(NC(=S)N2CCN(CCN3C(=O)c4cccc5cccc(c45)C3=O)CC2)c1,9.92
13,Cc1ccc(OCC(=O)NCCNC(=O)c2ccc(C)nc2)cc1,17.3
14,CC(C)(C)c1ccc(S(=O)(=O)NCCOCC(F)(F)C(F)F)cc1,-1.09
15,Cc1cc(Cl)c(OCCCn2ccnc2)c(Br)c1,-16.8
16,CCC(=O)Nc1cc(OC)c(NC(=O)c2ccccc2)cc1OC,-0.325
17,COc1ccc(C(=O)NCc2ccc(C(=O)NCC(OC)OC)cc2)cc1OC,16.4
18,COC(=O)[C@@H](Cc1c[nH]c2ccccc12)NC(=O)c1cc(=O)[nH]c2ccccc12,3.38
